Assay results taken from paper PMC4336329 (PLoS ONE, 2015).
The whole screen tested about 310,000 compounds, of which about 2,200 (0.71%) showed an effect of 50% or more. Effects have a minus sign here. The list shows a part of the results.

target: human ether-à-go-go-related gene (hERG) potassium channel (human, UniProt Q12809); experiment: primary screen, population patch clamp on CHO cells stably expressing hERG
Sequence (Q12809 whole entry, looked up): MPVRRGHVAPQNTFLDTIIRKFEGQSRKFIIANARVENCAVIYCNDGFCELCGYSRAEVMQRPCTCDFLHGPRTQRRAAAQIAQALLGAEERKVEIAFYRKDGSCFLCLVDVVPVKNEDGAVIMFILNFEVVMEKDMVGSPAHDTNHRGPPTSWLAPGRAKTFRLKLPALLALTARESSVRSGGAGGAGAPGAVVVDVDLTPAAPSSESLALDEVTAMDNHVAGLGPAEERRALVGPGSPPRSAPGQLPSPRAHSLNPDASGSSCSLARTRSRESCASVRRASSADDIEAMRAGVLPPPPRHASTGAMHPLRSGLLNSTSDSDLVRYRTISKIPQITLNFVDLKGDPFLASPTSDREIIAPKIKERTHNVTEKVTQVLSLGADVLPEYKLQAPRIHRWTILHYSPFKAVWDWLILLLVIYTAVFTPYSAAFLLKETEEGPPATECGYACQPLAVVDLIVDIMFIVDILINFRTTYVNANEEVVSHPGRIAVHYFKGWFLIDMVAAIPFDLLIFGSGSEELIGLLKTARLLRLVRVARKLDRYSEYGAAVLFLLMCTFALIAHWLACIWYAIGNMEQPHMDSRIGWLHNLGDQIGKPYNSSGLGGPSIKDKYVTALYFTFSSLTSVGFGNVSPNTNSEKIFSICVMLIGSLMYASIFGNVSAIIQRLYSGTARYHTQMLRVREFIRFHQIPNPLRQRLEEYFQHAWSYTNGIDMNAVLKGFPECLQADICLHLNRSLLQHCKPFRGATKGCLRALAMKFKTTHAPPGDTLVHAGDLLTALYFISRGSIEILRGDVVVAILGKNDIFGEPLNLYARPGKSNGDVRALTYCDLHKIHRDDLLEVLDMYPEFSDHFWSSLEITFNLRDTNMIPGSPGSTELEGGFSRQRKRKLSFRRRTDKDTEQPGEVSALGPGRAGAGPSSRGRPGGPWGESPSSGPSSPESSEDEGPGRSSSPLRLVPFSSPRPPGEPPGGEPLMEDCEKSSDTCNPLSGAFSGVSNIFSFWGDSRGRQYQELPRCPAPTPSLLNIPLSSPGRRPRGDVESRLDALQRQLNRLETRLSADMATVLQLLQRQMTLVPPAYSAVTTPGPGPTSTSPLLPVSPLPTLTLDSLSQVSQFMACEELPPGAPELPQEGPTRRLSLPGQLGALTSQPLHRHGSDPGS

Row | Structure (SMILES) | hERG current change (%, negative = inhibition) at 1uM [%]
1 | C#CCOCCOCCOCCNc1nc(N2CCN(C(=O)[C@H](CCCCN)n3cc(C(N)[C@H](C)CC)nn3)CC2)nc(N2CCN(C(=O)[C@H](CCC(=O)O)n3cc(C(N)[C@H](C)CC)nn3)CC2)n1.Cl (stereo partly drawn) | 7.77
2 | O=C(CCc1nc2sc3c(c2c(=O)[nH]1)CCCC3)Nc1cccc(Cl)c1 | 3.08
3 | Cc1ccc(-n2c(Cc3cccn3C)nnc2SCC(N)=O)cc1 | -3.2
4 | Cc1ccc(NCC(=O)N/N=C/c2cc(O)ccc2[N+](=O)[O-])cc1 | 14
5 | COc1ccc2[nH]c3c(c2c1)CCNC3c1ccc([N+](=O)[O-])o1.Cl (stereo not drawn) | 4.08
6 | COC(=O)c1ccc(NC(=O)CN2C(=O)CNC2=O)cc1 | 14.9
7 | CCCOC(=S)NC(=O)c1sc2ccccc2c1Cl | 1.39
8 | CCCCOc1ccc2c(C)cc(=O)oc2c1OCCCC | 8.25
9 | CCN=C1SC(C(=O)Nc2ccc(OCC)cc2)CC(=O)N1CC (stereo not drawn) | 11.7
10 | CCOc1c(CNCCCSc2nc(C)cc(C)n2)cccc1OC.Cl | 10.3
11 | C=CCn1c(O)c(C(C)=NC(C)c2ccccc2)c(=O)[nH]c1=O (stereo not drawn) | 10.4
12 | Cc1ccc([N+](=O)[O-])c(C(=O)Nc2cccnc2Cl)c1 | 4.94
13 | CCC(=O)Nc1ccc(NC(=O)c2ccc3c(c2)OCO3)cc1 | 3.87
14 | COc1ccc(CCNC(=O)c2ccc(COc3ccccc3OC)o2)cc1 | 4.54
15 | Cc1cc(=O)n(-c2ccccc2Cl)[nH]1 | 10.4
16 | COc1ccccc1-c1noc(CCCC(=O)NC2CCCC2)n1 | 15.1
17 | Cc1cc(C)nc(Sc2nc(Nc3ccccc3)nc(Sc3nc(C)cc(C)n3)n2)n1 | 4.2
18 | COc1cc(OC)c(NC2=NCCCCC2)cc1Cl | 9.81
19 | Cc1ccccc1C(=O)NC(=S)Nc1ccc(S(=O)(=O)N2CCN(C)CC2)cc1 | 4.91
20 | CCc1cc2c(SCC(=O)c3ccc(Cl)s3)ncnc2s1 | 5.79
21 | Cc1ccc(C)c(NC(=O)COc2coc(CN3CCc4ccccc4C3)cc2=O)c1 | -5.2
22 | CC(Sc1nnc2c(n1)C1CCC2(C)C1(C)C)C(=O)Nc1ccccc1 (stereo not drawn) | 6.7
23 | CCOc1ccc2[nH]c3c(N4CCC5(CC4)OCCO5)ncnc3c2c1 | 14.6

Row | Structure (SMILES) | hERG current change (%, negative = inhibition) at 1uM [%]
24 | O=C1OC(c2ccccc2)=N/C1=C\C=C\c1ccco1 | 11.5
25 | CCN(CC)c1ncnnc1-c1ccccc1 | 9.64
26 | Cc1ccc(S(=O)(=O)NCCC(=O)OCC(=O)N2CCCC2=O)cc1C | 8.35
27 | Cc1ccccc1NCN1C(=O)C2CCC(C)(C1=O)C2(C)C (stereo not drawn) | 6.18
28 | Cc1ccc(S(=O)(=O)Nc2ccccc2C(=O)Nc2ccc(S(=O)(=O)Nc3nccc(C)n3)cc2)cc1 | 12.3
29 | CCN(CC)c1ccc(/C=N/NC(=S)NCc2ccc(OC)cc2)cc1 | 14.5
30 | C=CCOc1c(CNC2CCCC2)cc(Cl)cc1OC.Cl | 5.81
31 | COc1ccc(C(C)(C)C)cc1NC(=O)c1cc(S(=O)(=O)N(C)C)ccc1N1CCCC1 | 0.432
32 | O=C(N[C@@H](Cc1ccccc1)C(=O)O)c1ccncc1.O=C(O)C(F)(F)F | 8.65
33 | S=c1[nH]nc(-c2cccs2)n1/N=C/c1cccs1 | 11.5
34 | c1nc(COc2nsnc2N2CCOCC2)cs1 | 0.141
35 | Cc1ccc(SCCN2CCC(C(C)(C)C)CCC2=O)cc1 (stereo not drawn) | 11.6
36 | Cc1c(-c2nc3ccccc3[nH]2)cnn1C | 11.4
37 | Cc1c(Cl)cccc1NC(=O)c1ccco1 | 12.6
38 | COc1ccc(CCNC(=O)CCn2c(SCC#N)nc3ccccc3c2=O)cc1OC | 2.94
39 | Nc1nnnn1/N=C/c1cc(Cl)ccc1O | 15.2
40 | CCOC(=O)C(C)Sc1nnc2c3ccccc3n(C)c2n1 (stereo not drawn) | 8.45
41 | O=C(NC1CC1)c1ccc(Cl)c(S(=O)(=O)N2CCOCC2)c1 | 6.71
42 | CCOc1cc(C(C(=O)NCC2CCCO2)N(C(=O)Cn2nnc3ccccc32)c2ccccc2C)ccc1O (stereo not drawn) | 20.8
43 | CCCCc1nc(NCc2ccccc2)c(C#N)c2c1COC(C)(C)C2 | 10.9
44 | CCCCN(C(=O)C1CCCC1)c1c(N)n(CC(C)C)c(=O)[nH]c1=O | 7.38
45 | Cc1nn(CC(=O)N(C)C)c(=O)c2ccccc12 | 17.6
